# Laboratory results taken from paper PMC9911399, “Two distinct binding modes provide the RNA-binding protein RbFox with extraordinary sequence specificity”.
# Where a chain is given by its changes, count along the chain named. This is one part of the list.
# B1: AGGGAUG (DNA:RNA)
# RNA: GGGAGACCGGAAUUCAGAUUGUCCAGGGAUGUUAAAUCCCGUCGUAGCCACCA
# DNA 1: CAATCTGAATTCCGGTCTCCC
# DNA 2: TGGTGGCTACGACGGGATT
# B2: AGGCCAU (DNA:RNA)
# RNA: B1 RNA with G28C, A29C, U30A, G31U
# DNA 1: CAATCTGAATTCCGGTCTCCC
# DNA 2: TGGTGGCTACGACGGGATT
# B3: CUGAAGG (DNA:RNA)
# RNA: B1 RNA with A25C, G26U, G28A, U30G
# DNA 1: CAATCTGAATTCCGGTCTCCC
# DNA 2: TGGTGGCTACGACGGGATT
# B4: AUUAUUU (DNA:RNA)
# RNA: B1 RNA with G26U, G27U, G28A, A29U, G31U
# DNA 1: CAATCTGAATTCCGGTCTCCC
# DNA 2: TGGTGGCTACGACGGGATT
# B5: GCUUUGC (DNA:RNA)
# RNA: GGGAGACCGGAAUUCAGAUUGUCCGCUUUGCUUAAAUCCCGUCGUAGCCACCA
# DNA 1: CAATCTGAATTCCGGTCTCCC
# DNA 2: TGGTGGCTACGACGGGATT
# B6: AAAUUUU (DNA:RNA)
# RNA: B1 RNA with G26A, G27A, G28U, A29U, G31U
# DNA 1: CAATCTGAATTCCGGTCTCCC
# DNA 2: TGGTGGCTACGACGGGATT
# B7: UAAAGUA (DNA:RNA)
# RNA: B1 RNA with A25U, G26A, G27A, G28A, A29G, G31A
# DNA 1: CAATCTGAATTCCGGTCTCCC
# DNA 2: TGGTGGCTACGACGGGATT
# B8: GAGGAAA (DNA:RNA)
# RNA: B1 RNA with A25G, G26A, U30A, G31A
# DNA 1: CAATCTGAATTCCGGTCTCCC
# DNA 2: TGGTGGCTACGACGGGATT
# B9: AUCCAGG (DNA:RNA)
# RNA: B1 RNA with G26U, G27C, G28C, U30G
# DNA 1: CAATCTGAATTCCGGTCTCCC
# DNA 2: TGGTGGCTACGACGGGATT
# B10: AUCGGGU (DNA:RNA)
# RNA: B1 RNA with G26U, G27C, A29G, U30G, G31U
# DNA 1: CAATCTGAATTCCGGTCTCCC
# DNA 2: TGGTGGCTACGACGGGATT
# B11: CACACCG (DNA:RNA)
# RNA: B1 RNA with A25C, G26A, G27C, G28A, A29C, U30C
# DNA 1: CAATCTGAATTCCGGTCTCCC
# DNA 2: TGGTGGCTACGACGGGATT
# B12: CACGAAU (DNA:RNA)
# RNA: B1 RNA with A25C, G26A, G27C, U30A, G31U
# DNA 1: CAATCTGAATTCCGGTCTCCC
# DNA 2: TGGTGGCTACGACGGGATT
# B13: GGGGACC (DNA:RNA)
# RNA: B1 RNA with A25G, U30C, G31C
# DNA 1: CAATCTGAATTCCGGTCTCCC
# DNA 2: TGGTGGCTACGACGGGATT
# B14: UCGUGGG (DNA:RNA)
# RNA: B5 RNA with G25U, U27G, U29G, C31G
# DNA 1: CAATCTGAATTCCGGTCTCCC
# DNA 2: TGGTGGCTACGACGGGATT
# B15: AAAAGUC (DNA:RNA)
# RNA: B1 RNA with G26A, G27A, G28A, A29G, G31C
# DNA 1: CAATCTGAATTCCGGTCTCCC
# DNA 2: TGGTGGCTACGACGGGATT
# B16: CGUCUUU (DNA:RNA)
# RNA: B1 RNA with A25C, G27U, G28C, A29U, G31U
# DNA 1: CAATCTGAATTCCGGTCTCCC
# DNA 2: TGGTGGCTACGACGGGATT
# B17: UUACAGC (DNA:RNA)
# RNA: B5 RNA with G25U, C26U, U27A, U28C, U29A
# DNA 1: CAATCTGAATTCCGGTCTCCC
# DNA 2: TGGTGGCTACGACGGGATT
# B18: CACGUAC (DNA:RNA)
# RNA: B5 RNA with G25C, C26A, U27C, U28G, G30A
# DNA 1: CAATCTGAATTCCGGTCTCCC
# DNA 2: TGGTGGCTACGACGGGATT
# B19: UGACACC (DNA:RNA)
# RNA: B1 RNA with A25U, G27A, G28C, U30C, G31C
# DNA 1: CAATCTGAATTCCGGTCTCCC
# DNA 2: TGGTGGCTACGACGGGATT
# B20: CGCUACG (DNA:RNA)
# RNA: B1 RNA with A25C, G27C, G28U, U30C
# DNA 1: CAATCTGAATTCCGGTCTCCC
# DNA 2: TGGTGGCTACGACGGGATT
# Target: T1, RBFOX1 RRM (Homo sapiens, UniProt Q9NWB1 109-208)
# T1 sequence: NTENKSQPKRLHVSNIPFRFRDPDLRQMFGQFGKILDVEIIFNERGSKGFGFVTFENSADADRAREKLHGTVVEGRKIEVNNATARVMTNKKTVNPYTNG
# Assay: EMSA; HiTS-Eq, 1 nM pool, 10 min; buffer printed only for the single-RNA assays: 10 mM Tris pH 7.5, 150 mM NaCl, 3.4 mM EDTA, 0.001% NP-40, 30 C
# Conditions: tags: His6 N-terminal (pET28a); label: 5' 32P
# Method in brief: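 Purified RbFox RRM, wild type or mutant, was incubated for 10 min in 50 µL with 1 nM of a 5′-radiolabelled RNA pool carrying 7 randomized nucleotides, whose flanks were annealed to DNA oligonucleotides, over a series of increasing protein concentrations. Unbound RNA was resolved on 8% native PAGE, cut out, reverse-transcribed, barcoded by PCR and sequenced on an Illumina HiSeq 2500. Relative association constants were derived from changes in read counts for each RNA species versus the control reaction and normalised to the cognate motif.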
row,Binder,binding signal
1,B1,0.0215 KA relative to UGCAUGU
2,B2,0.00538 KA relative to UGCAUGU
3,B3,0.0159 KA relative to UGCAUGU
4,B4,0.00195 KA relative to UGCAUGU
5,B5,0.0232 KA relative to UGCAUGU
6,B6,0.00354 KA relative to UGCAUGU
7,B7,0.00856 KA relative to UGCAUGU
8,B8,0.0102 KA relative to UGCAUGU
9,B9,0.00478 KA relative to UGCAUGU
10,B10,0.00996 KA relative to UGCAUGU
11,B11,0.000533 KA relative to UGCAUGU
12,B12,0.00257 KA relative to UGCAUGU
13,B13,0.0295 KA relative to UGCAUGU
14,B14,0.0118 KA relative to UGCAUGU
15,B15,0.00273 KA relative to UGCAUGU
16,B16,0.0124 KA relative to UGCAUGU
17,B17,0.00644 KA relative to UGCAUGU
18,B18,0.00332 KA relative to UGCAUGU
19,B19,0.00783 KA relative to UGCAUGU
20,B20,0.0115 KA relative to UGCAUGU
